Measurements from the supplement of paper PMC10338343.
± gives the standard deviation. The list shows a part of the results, in another mix than the full data.

These sequences were tested on MIWI (PIWIL1) piRISC loaded with L1MC piRNA (30 nt) (assay: pre-steady-state target cleavage rate (min^-1); MIWI and MILI are mouse PIWI proteins and EfPiwi is from a freshwater sponge; tags in brackets are library labels; higher = faster piRNA-guided slicing of the target). Conditions: guide: L1MC piRNA 5'p-UAACUAAAUACUAUGCAAGCUGUAGGUCCU; auxiliary factor: 500 nM mouse GTSF1.
Outline: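 At 33 °C in HEPES–potassium acetate buffer, a transcribed, DNA-blocked target RNA library […] was exposed for 0–8 or 0–960 min to 1 nM active affinity-purified piRISC carrying a single synthetic guide, with or without 500 nM GTSF1 partner protein. Uncleaved targets were sequenced and normalised to depth and to weakly complementary targets. With three trials pooled and k3 capped at 0.0001 min^-1, a burst-and-steady-state fit produced the pre-steady-state cleavage rate.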
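Also: 1 nM active piRISC with 0.1 nM target library at 33 °C single turnover.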

| Sequence | pre-steady-state target cleavage rate |
| --- | --- |
| UCCUGCUACAGCUUGGUUAGUAUUUAGUAA | 0.33 ± 0.033 |
| UCCUGGUACAGCUUGCAUAGUAAUUAGUAA | 0.359 ± 0.049 |
| UCCUCCUACAGCAUGCAUUGUAUUUAGUUA | 0.83 ± 0.042 |
| UCGAUCUACAGCUUGCAUAGUAUUUAGUUA | 1.61 ± 0.05 |
| UCCUGGUAACAGCUUGCAUAGUAUUUAGUUA | 0.766 ± 0.031 |
| UCCUGCUACAGCUUGGAUAGUUUUUAGUUA | 0.277 ± 0.033 |
| UCCUGGAUCAGCAUGCAAAGUAUUUAGUUA | 0.462 ± 0.033 |
| UCCUGCUACAGCUUGAUAGUAUUUAGUUA | 0.74 ± 0.057 |
| UCCUGGAACAGCGUGCAUAGUAUUUAGUUA | 1.29 ± 0.043 |
| UGGACCUACAGCUAGGAUAGUAUUUAGUUA | 1.39 ± 0.068 |
| AGGACGAACAGCUUGCAUAGUAUUUUCAAA | 0.233 ± 0.04 |
| UCGACCUACAGCUUGCAUAGUAAUUUAGUUA | 0.179 ± 0.019 |
| UCGACCUACACCUUCCAUAGUAUUUAGUUA | 0.0294 ± 0.0086 |
| AGGACCAACAGCUUGCAUAGUAUUAAGUUA | 0.756 ± 0.082 |
| AGGACCUACAUCUUGCAUAGUAUUUAGUUA | 1.39 ± 0.036 |
| AGCACCUACAGCUUGCAUAGUAAUUAGUUA | 1.01 ± 0.15 |
| UCCUGGAUCAGGUUGCAUAGUAUUUAGAUA | 0.165 ± 0.027 |
| UGGACCUACAGCAUGCAUAGUAUUUAGAUA | 0.461 ± 0.035 |
| UCCACCUACUGCUUGCAUACUAUUUAGUUA | 0.297 ± 0.026 |
| AGGACCUACAGCUUGCAUAGUAAUUAGUAA | 0.587 ± 0.061 |

| Sequence | pre-steady-state target cleavage rate |
| --- | --- |
| UCCUCCUACGGCUUGCAUAGUAUUUAGUUA | 1.1 ± 0.048 |
| AGGACCUACAGCUACCAUAGUAUUUAGUUA | 0.626 ± 0.043 |
| UCCUGCUACAGCUUGCAUACUUUUUAGUUA | 0.0369 ± 0.0077 |
| UCCUGGAUCAGCUUGCAUAGUGAUUUAGUUA | 0.0192 ± 0.0052 |
| UGGACCUUCAGCUUGCAUAGUAUUUUGUUA | 1.02 ± 0.058 |
| UCCACGUACAGCUUGCAUAGUAUUUAGAAA | 0.341 ± 0.037 |
| UCCUGGAACAGCUUGCUUAGAAUUUAGUUA | 0.133 ± 0.015 |
| AGGACCUACAGCUUGCAUAGUGUUUAGUUA | 1.05 ± 0.067 |
| UCCACCUACAGCUUGCAUACUAUUUAGUAA | 0.184 ± 0.028 |
| AGGUCCUACAGCUUGCAUAGUAAUUAGUUA | 0.82 ± 0.045 |
| UCCACCUACAGCUUGCAUUGUAUUUACUUA | 0.342 ± 0.031 |
| AGGACCUACACCUUGCAUAGUAUUUACAAA | 0.441 ± 0.059 |
| UGGACCUACAGCUUGCAUACUAUUUACUUA | 0.132 ± 0.015 |
| AGGACCUACAGCUUGCAUAGUAUGUAGUUA | 0.647 ± 0.13 |
| UCCUCCUACAGCAUGCAAAGUAUUUAGUUA | 0.952 ± 0.048 |
| UCCACCUACAGGUUGGAUAGUAUUUAGUUA | 1.28 ± 0.13 |
| UCCUGGAUCAGCUUGCAUAGUGUUUAGUUA | 1.12 ± 0.046 |
| UCGACCUACAGCUUGCAUAGUUUUUUGUUA | 0.327 ± 0.022 |
| UCCUGGAUGUCCUUGCCUAGUAUUUAGUUA | 0.0145 ± 0.003 |
| UCCUGGAACAGCUUGCUUAGUAUUUAGUAA | 0.604 ± 0.048 |

Same assay, conditions: guide: L1MC piRNA 5'p-UAACUAAAUACUAUGCAAGCUGUAGGUCCU; auxiliary factor: none (no GTSF1)

| Sequence | pre-steady-state target cleavage rate |
| --- | --- |
| UCCUGCUACAGCUUGGUUAGUAUUUAGUAA | 0.0041 ± 0.0019 |
| UCCUGGUACAGCUUGCAUAGUAAUUAGUAA | 0.00888 ± 0.0027 |
| UCCUCCUACAGCAUGCAUUGUAUUUAGUUA | 0.009 ± 0.002 |
| UCGAUCUACAGCUUGCAUAGUAUUUAGUUA | 0.072 ± 0.013 |
| UCCUGGUAACAGCUUGCAUAGUAUUUAGUUA | 0.0948 ± 0.023 |
| UCCUGCUACAGCUUGGAUAGUUUUUAGUUA | 0.0227 ± 0.0053 |
| UCCUGGAUCAGCAUGCAAAGUAUUUAGUUA | 0.00887 ± 0.0031 |
| UCCUGCUACAGCUUGAUAGUAUUUAGUUA | 0.00577 ± 0.0023 |
| UCCUGGAACAGCGUGCAUAGUAUUUAGUUA | 0.0415 ± 0.0072 |
| UGGACCUACAGCUAGGAUAGUAUUUAGUUA | 0.00938 ± 0.0019 |
| AGGACGAACAGCUUGCAUAGUAUUUUCAAA | 0.00425 ± 0.0027 |
| UCGACCUACAGCUUGCAUAGUAAUUUAGUUA | 0.0146 ± 0.0048 |
| UCGACCUACACCUUCCAUAGUAUUUAGUUA | 0.00291 ± 0.0015 |
| AGGACCAACAGCUUGCAUAGUAUUAAGUUA | 0.0463 ± 0.0088 |
| AGGACCUACAUCUUGCAUAGUAUUUAGUUA | 0.0767 ± 0.012 |
| AGCACCUACAGCUUGCAUAGUAAUUAGUUA | 0.0278 ± 0.0099 |
| UCCUGGAUCAGGUUGCAUAGUAUUUAGAUA | 0.00293 ± 0.0029 |
| UGGACCUACAGCAUGCAUAGUAUUUAGAUA | 0.0142 ± 0.0031 |
| UCCACCUACUGCUUGCAUACUAUUUAGUUA | 0.0231 ± 0.0039 |
| AGGACCUACAGCUUGCAUAGUAAUUAGUAA | 0.0377 ± 0.011 |

| Sequence | pre-steady-state target cleavage rate |
| --- | --- |
| UCCUCCUACGGCUUGCAUAGUAUUUAGUUA | 0.0481 ± 0.0083 |
| AGGACCUACAGCUACCAUAGUAUUUAGUUA | 0.00375 ± 0.003 |
| UCCUGCUACAGCUUGCAUACUUUUUAGUUA | 0.00652 ± 0.0018 |
| UCCUGGAUCAGCUUGCAUAGUGAUUUAGUUA | 0.00465 ± 0.0017 |
| UGGACCUUCAGCUUGCAUAGUAUUUUGUUA | 0.05 ± 0.0093 |
| UCCACGUACAGCUUGCAUAGUAUUUAGAAA | 0.00692 ± 0.0022 |
| UCCUGGAACAGCUUGCUUAGAAUUUAGUUA | 0.0129 ± 0.0048 |
| AGGACCUACAGCUUGCAUAGUGUUUAGUUA | 0.0729 ± 0.015 |
| UCCACCUACAGCUUGCAUACUAUUUAGUAA | 0.00957 ± 0.0025 |
| AGGUCCUACAGCUUGCAUAGUAAUUAGUUA | 0.0393 ± 0.008 |
| UCCACCUACAGCUUGCAUUGUAUUUACUUA | 0.017 ± 0.0047 |
| AGGACCUACACCUUGCAUAGUAUUUACAAA | 0.0127 ± 0.0031 |
| UGGACCUACAGCUUGCAUACUAUUUACUUA | 0.0153 ± 0.0035 |
| AGGACCUACAGCUUGCAUAGUAUGUAGUUA | 0.0176 ± 0.0064 |
| UCCUCCUACAGCAUGCAAAGUAUUUAGUUA | 0.0107 ± 0.0027 |
| UCCACCUACAGGUUGGAUAGUAUUUAGUUA | 0.0264 ± 0.0047 |
| UCCUGGAUCAGCUUGCAUAGUGUUUAGUUA | 0.0408 ± 0.0089 |
| UCGACCUACAGCUUGCAUAGUUUUUUGUUA | 0.0209 ± 0.005 |
| UCCUGGAUGUCCUUGCCUAGUAUUUAGUUA | 0.00418 ± 0.0022 |
| UCCUGGAACAGCUUGCUUAGUAUUUAGUAA | 0.0119 ± 0.0031 |
